# Measurements as given in the supplement of paper PMC8728848.
# The list shows a part of the results.
# B1: B1567 (Bifidobacterium sp) (protein)
# chain: MKFTTAKKAVALTGAVAMLVSVAACGSDSGKSSQPAQDSDVKEITVWAWEPSLTQVAKDFEKETGIKVDLKNVGTNTKEYTQLDNAIEAGSGAPDVAQVEYYAVPQYAIKGNLLDITDKTSGYKDFYTPGPWASVQFAGKVYGLPMDSGPMAFFYNKEVFDKAGVDAEQIKTWDQYYDAAKKIHALGDNYYITSDTGDAGFFDSMTWLAGAKPFQTSSDGSEVTVNLTEDKGVKTFTDFWQKLLDEGLLDTKTAGWSEDWFKGMVDGTIASLFTGAWMPANLANSAADGAGKWRVTQMPTADGSTTNSENGGSSLAVLASTKKADAAYQFIEYANHGAGVATRVAGGAFPADKASLEKDSFKNATTVKNADGQDVDYFGGQKYNEVLAQAAENVSSGYQFLPFEVKARTIFGDYFGKSYTGDQKLSDGVAAWQKALQDYGKDQGFTVK
# Tests used:
# Experiment in all cases: glycan array binding signal (z-score within array); higher = stronger binding
# Settings in all cases: glycan notation: IUPAC condensed, linker removed
# [1] = molecular target: Man(a1-3)[Man(a1-6)]Man(a1-6)[Man(a1-3)]Man
# Procedure, shortened: (§1)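 Negative Z-scores can be read as non-binding. The Z-score is calculated within each array and then averaged across arrays of one protein sequence at different concentrations or buffers and across linkers. Arrays, 3228 in all, were curated from the Consortium for Functional Glycomics database and kept only where the protein sequence was available.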
# [2] = molecular target: Man(a1-3)[Man(a1-6)]Man(a1-6)[Man(a1-3)]Man(b1-4)GlcNAc(b1-4)GlcNAc
# Procedure, shortened: as §1
# [3] = molecular target: Man(a1-3)[Man(a1-6)]Man(b1-4)GlcNAc(b1-4)GlcNAc
# Procedure, shortened: as §1
# [4] = molecular target: Man(a1-3)[Man(a1-6)]Man(b1-4)GlcNAc(b1-4)[Fuc(a1-6)]GlcNAc
# Procedure, shortened: as §1
# Man(a1-6)Man = molecular target: Man(a1-6)Man
# Procedure, shortened: as §1
# Man(b1-4)GlcNAc = molecular target: Man(b1-4)GlcNAc
# Procedure, shortened: as §1
# MurNAc(b1-4)GlcNAc = molecular target: MurNAc(b1-4)GlcNAc
# Procedure, shortened: as §1
# Neu5Ac(a2-3)Gal = molecular target: Neu5Ac(a2-3)Gal
# Procedure, shortened: as §1
# [5] = molecular target: Neu5Ac(a2-3)Gal(b1-3)GalNAc
# Procedure, shortened: as §1
# [6] = molecular target: Neu5Ac(a2-3)Gal(b1-3)GalNAc(b1-3)Gal(a1-4)Gal(b1-4)Glc
# Procedure, shortened: as §1
# [7] = molecular target: Neu5Ac(a2-3)Gal(b1-3)GalNAc(b1-4)Gal(b1-4)Glc
# Procedure, shortened: as §1
# [8] = molecular target: Neu5Ac(a2-3)Gal(b1-3)GalNAc(b1-4)[Neu5Ac(a2-3)]Gal(b1-4)Glc
# Procedure, shortened: as §1
# [9] = molecular target: Neu5Ac(a2-3)Gal(b1-3)GalNAc(b1-4)[Neu5Ac(a2-8)Neu5Ac(a2-3)]Gal(b1-4)Glc
# Procedure, shortened: as §1
# [10] = molecular target: Neu5Ac(a2-3)Gal(b1-3)GalNAc6S
# Procedure, shortened: as §1
# [11] = molecular target: Neu5Ac(a2-3)Gal(b1-3)GlcNAc
# Procedure, shortened: as §1
# [12] = molecular target: Neu5Ac(a2-3)Gal(b1-3)GlcNAc(b1-2)Man
# Procedure, shortened: as §1
# [13] = molecular target: Neu5Ac(a2-3)Gal(b1-3)GlcNAc(b1-2)Man(a1-3)[GlcNAc(b1-4)][Neu5Ac(a2-3)Gal(b1-3)GlcNAc(b1-2)Man(a1-6)]Man(b1-4)GlcNAc(b1-4)GlcNAc
# Procedure, shortened: as §1
# [14] = molecular target: Neu5Ac(a2-3)Gal(b1-3)GlcNAc(b1-2)Man(a1-3)[Neu5Ac(a2-3)Gal(b1-3)GlcNAc(b1-2)Man(a1-6)]Man(b1-4)GlcNAc(b1-4)GlcNAc
# Procedure, shortened: as §1
# [15] = molecular target: Neu5Ac(a2-3)Gal(b1-3)GlcNAc(b1-2)[Neu5Ac(a2-3)Gal(b1-3)GlcNAc(b1-4)]Man(a1-6)[Neu5Ac(a2-3)Gal(b1-3)GlcNAc(b1-2)Man(a1-3)]Man(b1-4)GlcNAc(b1-4)GlcNAc
# Procedure, shortened: as §1
# [16] = molecular target: Neu5Ac(a2-3)Gal(b1-3)GlcNAc(b1-3)Gal(b1-3)GlcNAc
# Procedure, shortened: as §1
# [17] = molecular target: Neu5Ac(a2-3)Gal(b1-3)GlcNAc(b1-3)Gal(b1-4)GlcNAc
# Procedure, shortened: as §1
# [18] = molecular target: Neu5Ac(a2-3)Gal(b1-3)GlcNAc(b1-3)GalNAc
# Procedure, shortened: as §1
# [19] = molecular target: Neu5Ac(a2-3)Gal(b1-3)GlcNAc(b1-6)GalNAc
# Procedure, shortened: as §1
# [20] = molecular target: Neu5Ac(a2-3)Gal(b1-3)GlcNAc6S
# Procedure, shortened: as §1
# [21] = molecular target: Neu5Ac(a2-3)Gal(b1-3)[Fuc(a1-4)]GlcNAc
# Procedure, shortened: as §1
# [22] = molecular target: Neu5Ac(a2-3)Gal(b1-3)[Fuc(a1-4)]GlcNAc(b1-3)Gal(b1-3)[Fuc(a1-4)]GlcNAc
# Procedure, shortened: as §1
# [23] = molecular target: Neu5Ac(a2-3)Gal(b1-3)[Fuc(a1-4)]GlcNAc(b1-3)Gal(b1-4)[Fuc(a1-3)]GlcNAc
# Procedure, shortened: as §1
# [24] = molecular target: Neu5Ac(a2-3)Gal(b1-3)[GlcNAc(b1-6)]GalNAc
# Procedure, shortened: as §1
# [25] = molecular target: Neu5Ac(a2-3)Gal(b1-3)[Neu5Ac(a2-6)]GalNAc
# Procedure, shortened: as §1
# [26] = molecular target: Neu5Ac(a2-3)Gal(b1-3)[Neu5Ac(a2-6)]GlcNAc(b1-3)[Fuc(a1-3)[Gal(b1-4)]GlcNAc(b1-6)]Gal(b1-4)Glc
# Procedure, shortened: as §1
# [27] = molecular target: Neu5Ac(a2-3)Gal(b1-3)]Neu5Ac(a2-3)Gal(b1-4)]GlcNAc
# Procedure, shortened: as §1
# Neu5Ac(a2-3)Gal(b1-4)Glc = molecular target: Neu5Ac(a2-3)Gal(b1-4)Glc
# Procedure, shortened: as §1
# [28] = molecular target: Neu5Ac(a2-3)Gal(b1-4)GlcNAc
# Procedure, shortened: as §1
# [29] = molecular target: Neu5Ac(a2-3)Gal(b1-4)GlcNAc(b1-2)Man
# Procedure, shortened: as §1
# [30] = molecular target: Neu5Ac(a2-3)Gal(b1-4)GlcNAc(b1-2)Man(a1-3)[GlcNAc(b1-4)][Neu5Ac(a2-3)Gal(b1-4)GlcNAc(b1-2)Man(a1-6)]Man(b1-4)GlcNAc(b1-4)GlcNAc
# Procedure, shortened: as §1
# [31] = molecular target: Neu5Ac(a2-3)Gal(b1-4)GlcNAc(b1-2)Man(a1-3)[Neu5Ac(a2-3)Gal(b1-4)GlcNAc(b1-2)Man(a1-6)]Man(b1-4)GlcNAc(b1-4)GlcNAc
# Procedure, shortened: as §1
# [32] = molecular target: Neu5Ac(a2-3)Gal(b1-4)GlcNAc(b1-2)Man(a1-3)[Neu5Ac(a2-3)Gal(b1-4)GlcNAc(b1-2)Man(a1-6)]Man(b1-4)GlcNAc(b1-4)[Fuc(a1-6)]GlcNAc
# Procedure, shortened: as §1
# [33] = molecular target: Neu5Ac(a2-3)Gal(b1-4)GlcNAc(b1-2)Man(a1-3)[Neu5Ac(a2-6)Gal(b1-4)GlcNAc(b1-2)Man(a1-6)]Man(b1-4)GlcNAc(b1-4)GlcNAc
# Procedure, shortened: as §1
binder,measurement,setting,value
B1,glycan array binding signal (z-score),[1],-0.188
same,glycan array binding signal (z-score),[2],-0.114
same,glycan array binding signal (z-score),[3],-0.086
same,glycan array binding signal (z-score),[4],-0.075
same,glycan array binding signal (z-score),Man(a1-6)Man,-0.162
same,glycan array binding signal (z-score),Man(b1-4)GlcNAc,-0.154
same,glycan array binding signal (z-score),MurNAc(b1-4)GlcNAc,-0.163
same,glycan array binding signal (z-score),Neu5Ac(a2-3)Gal,-0.108
same,glycan array binding signal (z-score),[5],-0.114
same,glycan array binding signal (z-score),[6],-0.06
same,glycan array binding signal (z-score),[7],-0.112
same,glycan array binding signal (z-score),[8],-0.092
same,glycan array binding signal (z-score),[9],-0.116
same,glycan array binding signal (z-score),[10],-0.104
same,glycan array binding signal (z-score),[11],-0.061
same,glycan array binding signal (z-score),[12],-0.133
same,glycan array binding signal (z-score),[13],-0.019
same,glycan array binding signal (z-score),[14],-0.086
same,glycan array binding signal (z-score),[15],-0.072
same,glycan array binding signal (z-score),[16],-0.12
same,glycan array binding signal (z-score),[17],-0.029
same,glycan array binding signal (z-score),[18],-0.093
same,glycan array binding signal (z-score),[19],-0.05
same,glycan array binding signal (z-score),[20],-0.075
same,glycan array binding signal (z-score),[21],-0.109
same,glycan array binding signal (z-score),[22],-0.096
same,glycan array binding signal (z-score),[23],-0.046
same,glycan array binding signal (z-score),[24],-0.189
same,glycan array binding signal (z-score),[25],-0.122
same,glycan array binding signal (z-score),[26],-0.07
same,glycan array binding signal (z-score),[27],-0.078
same,glycan array binding signal (z-score),Neu5Ac(a2-3)Gal(b1-4)Glc,-0.075
same,glycan array binding signal (z-score),[28],-0.097
same,glycan array binding signal (z-score),[29],0.005
same,glycan array binding signal (z-score),[30],-0.097
same,glycan array binding signal (z-score),[31],-0.149
same,glycan array binding signal (z-score),[32],-0.063
same,glycan array binding signal (z-score),[33],-0.092
